Measurements as given in the supplement of paper PMC8728848.
Some of the results follow.

Columns and labels:
Assay in all cases: glycan array binding signal (z-score within array); higher = stronger binding
Details in all cases: glycan notation: IUPAC condensed, linker removed
[1] = molecular target: Fuc(a1-2)Gal
Outline: (§1)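 Arrays were curated from the Consortium for Functional Glycomics database, 3228 in total, and kept only where the protein sequence was available. Binding is expressed as a within-array Z-score. This score was averaged across arrays of the same protein sequence at different concentrations or buffers and across linkers, and negative values can be read as non-binding.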

[2] = molecular target: Fuc(a1-2)Gal(b1-3)GalNAc
Outline: as §1

[3] = molecular target: Fuc(a1-2)Gal(b1-3)GalNAc(b1-3)Gal
Outline: as §1

[4] = molecular target: Fuc(a1-2)Gal(b1-3)GalNAc(b1-3)Gal(a1-4)Gal(b1-4)Glc
Outline: as §1

[5] = molecular target: Fuc(a1-2)Gal(b1-3)GalNAc(b1-3)Gal(b1-4)Glc
Outline: as §1

[6] = molecular target: Fuc(a1-2)Gal(b1-3)GalNAc(b1-4)[Neu5Ac(a2-3)]Gal(b1-4)Glc
Outline: as §1

[7] = molecular target: Fuc(a1-2)Gal(b1-3)[Fuc(a1-4)]GlcNAc
Outline: as §1

[8] = molecular target: Fuc(a1-2)Gal(b1-4)Glc
Outline: as §1

[9] = molecular target: Fuc(a1-2)Gal(b1-4)GlcNAc
Outline: as §1

[10] = molecular target: Fuc(a1-2)Gal(b1-4)GlcNAc(b1-3)Gal(b1-4)GlcNAc
Outline: as §1

[11] = molecular target: Fuc(a1-2)Gal(b1-4)GlcNAc(b1-3)Gal(b1-4)GlcNAc(b1-3)Gal(b1-4)GlcNAc
Outline: as §1

[12] = molecular target: Fuc(a1-2)Gal(b1-4)[Fuc(a1-3)]GalNAc(b1-3)Gal(b1-4)[Fuc(a1-3)]GlcNAc
Outline: as §1

[13] = molecular target: Fuc(a1-2)Gal(b1-4)[Fuc(a1-3)]GalNAc(b1-3)Gal(b1-4)[Fuc(a1-3)]GlcNAc(b1-3)Gal(b1-4)[Fuc(a1-3)]GalNAc
Outline: as §1

[14] = molecular target: Fuc(a1-2)Gal(b1-4)[Fuc(a1-3)]GlcNAc
Outline: as §1

[15] = molecular target: Fuc(a1-2)GlcNAc
Outline: as §1

[16] = molecular target: Fuc(a1-2)[Gal(a1-3)]Gal
Outline: as §1

[17] = molecular target: Fuc(a1-2)[Gal(a1-3)]Gal(b1-3)GlcNAc
Outline: as §1

[18] = molecular target: Fuc(a1-2)[Gal(a1-3)]Gal(b1-4)Glc
Outline: as §1

[19] = molecular target: Fuc(a1-2)[Gal(a1-3)]Gal(b1-4)GlcNAc
Outline: as §1

[20] = molecular target: Fuc(a1-2)[Gal(a1-3)]Gal(b1-4)[Fuc(a1-3)]GlcNAc
Outline: as §1

[21] = molecular target: Fuc(a1-2)[Gal(a1-4)]Gal(b1-4)GalNAc
Outline: as §1

[22] = molecular target: Fuc(a1-2)[GalNAc(a1-3)]Gal
Outline: as §1

[23] = molecular target: Fuc(a1-2)[GalNAc(a1-3)]Gal(b1-3)GlcNAc
Outline: as §1

[24] = molecular target: Fuc(a1-2)[GalNAc(a1-3)]Gal(b1-4)Glc
Outline: as §1

[25] = molecular target: Fuc(a1-2)[GalNAc(a1-3)]Gal(b1-4)GlcNAc
Outline: as §1

[26] = molecular target: Fuc(a1-2)[GalNAc(a1-3)]Gal(b1-4)[Fuc(a1-3)]GlcNAc
Outline: as §1

[27] = molecular target: Fuc(a1-2)[GalNAc(a1-4)]Gal(b1-4)GlcNAc
Outline: as §1

[28] = molecular target: Fuc(a1-3)GlcNAc
Outline: as §1

[29] = molecular target: Fuc(a1-3)[Gal(b1-4)]GlcNAc
Outline: as §1

[30] = molecular target: Fuc(a1-3)[Gal(b1-4)]GlcNAc(b1-4)Gal(b1-4)[Fuc(a1-3)]GlcNAc
Outline: as §1

[31] = molecular target: Fuc(a1-3)[Gal(b1-4)]GlcNAc(b1-4)Gal(b1-4)[Fuc(a1-3)]GlcNAc(b1-4)Gal(b1-4)[Fuc(a1-3)]GlcNAc
Outline: as §1

[32] = molecular target: Fuc(a1-3)[Gal3S(b1-4)]GlcNAc
Outline: as §1

[33] = molecular target: Fuc(a1-3)[GalNAc(b1-4)]Gal(b1-4)GlcNAc
Outline: as §1

[34] = molecular target: Fuc(a1-4)GlcNAc
Outline: as §1

[35] = molecular target: Fuc(b1-3)GlcNAc
Outline: as §1

[36] = molecular target: Gal(a1-2)Gal
Outline: as §1

[37] = molecular target: Gal(a1-3)Gal
Outline: as §1

[38] = molecular target: Gal(a1-3)Gal(b1-3)Glc
Outline: as §1

[39] = molecular target: Gal(a1-3)Gal(b1-3)GlcNAc
Outline: as §1

[40] = molecular target: Gal(a1-3)Gal(b1-4)GlcNAc
Outline: as §1

[41] = molecular target: Gal(a1-3)Gal(b1-4)[Fuc(a1-3)]GalNAc
Outline: as §1

[42] = molecular target: Gal(a1-3)GlcNAc
Outline: as §1

[43] = molecular target: Gal(a1-3)[Gal(a1-4)]Gal(b1-4)GlcNAc
Outline: as §1

[44] = molecular target: Gal(a1-4)Gal(b1-4)Gal
Outline: as §1

[45] = molecular target: Gal(a1-4)Gal(b1-4)GalNAc
Outline: as §1

[46] = molecular target: Gal(a1-4)GlcNAc
Outline: as §1

[47] = molecular target: Gal(a1-6)Glc
Outline: as §1

[48] = molecular target: Gal(b1-2)Gal
Outline: as §1

[49] = molecular target: Gal(b1-3)Gal
Outline: as §1

[50] = molecular target: Gal(b1-3)GalNAc
Outline: as §1

[51] = molecular target: Gal(b1-3)GalNAc(b1-3)Gal(a1-4)Gal(b1-4)Glc
Outline: as §1

[52] = molecular target: Gal(b1-3)GalNAc(b1-3)Gal(b1-4)Glc
Outline: as §1

[53] = molecular target: Gal(b1-3)GalNAc(b1-3)Gal(b1-4)GlcNAc
Outline: as §1

[54] = molecular target: Gal(b1-3)GalNAc(b1-4)Gal(b1-4)Glc
Outline: as §1

[55] = molecular target: Gal(b1-3)GalNAc(b1-4)[Neu5Ac(a2-3)]Gal(b1-4)Glc
Outline: as §1

[56] = molecular target: Gal(b1-3)[Fuc(a1-4)]GlcNAc
Outline: as §1

[57] = molecular target: Gal(b1-3)[Fuc(a1-4)]GlcNAc(b1-3)Gal(b1-4)GlcNAc
Outline: as §1

[58] = molecular target: Gal(b1-3)[Fuc(a1-4)]GlcNAc(b1-3)Gal(b1-4)[Fuc(a1-3)]GlcNAc
Outline: as §1

[59] = molecular target: Gal(b1-3)[GlcNAc(b1-6)]GalNAc
Outline: as §1

[60] = molecular target: Gal(b1-3)[GlcNAc(b1-6)]GlcNAc
Outline: as §1

[61] = molecular target: Gal(b1-3)[Neu5Ac(a2-6)]GalNAc
Outline: as §1

[62] = molecular target: Gal(b1-3)[Neu5Ac(a2-6)]GlcNAc
Outline: as §1

[63] = molecular target: Gal(b1-3)[Neu5Ac(a2-6)]GlcNAc(a1-4)Gal(b1-4)Glc
Outline: as §1

[64] = molecular target: Gal(b1-3)[Neu5Ac(b2-6)]GlcNAc
Outline: as §1

[65] = molecular target: Gal(b1-4)GalNAc(a1-3)[Fuc(a1-2)]Gal(b1-4)GlcNAc
Outline: as §1

[66] = molecular target: Gal(b1-4)GalNAc(b1-3)[Fuc(a1-2)]Gal(b1-4)GlcNAc
Outline: as §1

[67] = molecular target: Gal(b1-4)Glc
Outline: as §1

[68] = molecular target: Gal(b1-4)Glc6S
Outline: as §1

[69] = molecular target: Gal(b1-4)GlcNAc
Outline: as §1

[70] = molecular target: Gal(b1-4)GlcNAc(b1-2)Man(a1-3)[Gal(b1-4)GlcNAc(b1-2)Man(a1-6)]Man(b1-4)GlcNAc(b1-4)GlcNAc
Outline: as §1

[71] = molecular target: Gal(b1-4)GlcNAc(b1-3)Gal(b1-4)Glc
Outline: as §1

[72] = molecular target: Gal(b1-4)GlcNAc(b1-3)Gal(b1-4)GlcNAc
Outline: as §1

[73] = molecular target: Gal(b1-4)GlcNAc(b1-3)Gal(b1-4)GlcNAc(b1-3)Gal(b1-4)GlcNAc
Outline: as §1

[74] = molecular target: Gal(b1-4)GlcNAc(b1-3)Gal(b1-4)[Fuc(a1-3)]GlcNAc(b1-3)Gal(b1-4)[Fuc(a1-3)]GlcNAc
Outline: as §1

[75] = molecular target: Gal(b1-4)GlcNAc(b1-3)GalNAc
Outline: as §1

B1: NakA (Mycobacterium tuberculosum) (protein)
chain: SVVKPTKVTVFSPDGGADNPGEADLAIDGNPATSWKTDIYTDPVPFPSFKNGVGLMLQLPQATVVGTVAIDVASTGTKVEIRSASTPTPATLEDTAVLTSATALRPGHNTISVEAAAPTSNLLVWISTLGTTDGKSQADISEITIYAASD
[1]
  glycan array binding signal (z-score): 1.69
[2]
  glycan array binding signal (z-score): 1.25
[3]
  glycan array binding signal (z-score): -0.07
[4]
  glycan array binding signal (z-score): 0.748
[5]
  glycan array binding signal (z-score): 0.15
[6]
  glycan array binding signal (z-score): -0.166
[7]
  glycan array binding signal (z-score): 0.759
[8]
  glycan array binding signal (z-score): 2.42
[9]
  glycan array binding signal (z-score): 1.61
[10]
  glycan array binding signal (z-score): 1.64
[11]
  glycan array binding signal (z-score): 2.46
[12]
  glycan array binding signal (z-score): 1.53
[13]
  glycan array binding signal (z-score): 2.85
[14]
  glycan array binding signal (z-score): 2.46
[15]
  glycan array binding signal (z-score): 0.978
[16]
  glycan array binding signal (z-score): 0.037
[17]
  glycan array binding signal (z-score): -0.261
[18]
  glycan array binding signal (z-score): 0.028
[19]
  glycan array binding signal (z-score): -0.351
[20]
  glycan array binding signal (z-score): 2.29
[21]
  glycan array binding signal (z-score): 0.019
[22]
  glycan array binding signal (z-score): 0.057
[23]
  glycan array binding signal (z-score): 1.21
[24]
  glycan array binding signal (z-score): 0.489
[25]
  glycan array binding signal (z-score): 0.624
[26]
  glycan array binding signal (z-score): 1.32
[27]
  glycan array binding signal (z-score): 0.052
[28]
  glycan array binding signal (z-score): 3.17
[29]
  glycan array binding signal (z-score): -0.303
[30]
  glycan array binding signal (z-score): 0.114
[31]
  glycan array binding signal (z-score): -0.308
[32]
  glycan array binding signal (z-score): -0.293
[33]
  glycan array binding signal (z-score): -0.165
[34]
  glycan array binding signal (z-score): 0.475
[35]
  glycan array binding signal (z-score): 0.066
[36]
  glycan array binding signal (z-score): -0.019
[37]
  glycan array binding signal (z-score): 0.214
[38]
  glycan array binding signal (z-score): -0.063
[39]
  glycan array binding signal (z-score): -0.365
[40]
  glycan array binding signal (z-score): -0.289
[41]
  glycan array binding signal (z-score): 1.71
[42]
  glycan array binding signal (z-score): -0.187
[43]
  glycan array binding signal (z-score): -0.295
[44]
  glycan array binding signal (z-score): -0.487
[45]
  glycan array binding signal (z-score): -0.122
[46]
  glycan array binding signal (z-score): 0.194
[47]
  glycan array binding signal (z-score): -0.122
[48]
  glycan array binding signal (z-score): -0.261
[49]
  glycan array binding signal (z-score): -0.154
[50]
  glycan array binding signal (z-score): -0.45
[51]
  glycan array binding signal (z-score): -0.428
[52]
  glycan array binding signal (z-score): -0.491
[53]
  glycan array binding signal (z-score): -0.519
[54]
  glycan array binding signal (z-score): -0.266
[55]
  glycan array binding signal (z-score): -0.456
[56]
  glycan array binding signal (z-score): -0.062
[57]
  glycan array binding signal (z-score): 0.059
[58]
  glycan array binding signal (z-score): -0.089
[59]
  glycan array binding signal (z-score): -0.429
[60]
  glycan array binding signal (z-score): -0.396
[61]
  glycan array binding signal (z-score): -0.457
[62]
  glycan array binding signal (z-score): -0.536
[63]
  glycan array binding signal (z-score): -0.386
[64]
  glycan array binding signal (z-score): -0.353
[65]
  glycan array binding signal (z-score): -0.206
[66]
  glycan array binding signal (z-score): -0.312
[67]
  glycan array binding signal (z-score): -0.139
[68]
  glycan array binding signal (z-score): -0.423
[69]
  glycan array binding signal (z-score): -0.385
[70]
  glycan array binding signal (z-score): -0.5
[71]
  glycan array binding signal (z-score): 0.248
[72]
  glycan array binding signal (z-score): -0.429
[73]
  glycan array binding signal (z-score): -0.502
[74]
  glycan array binding signal (z-score): 0.016
[75]
  glycan array binding signal (z-score): -0.439
